# Data: PubChem BioAssay AID1346428 (National Center for Advancing Translational Sciences (NCATS), 2018)
# Screen size: about 48,000 compounds; about 1,200 (2.5%) were called active. Roughly 2% stayed inconclusive and do not appear here.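 How the source made its calls: active means activation of at least 60% and not above a set upper limit (about 1 call in 100 departs from these limits); inconclusive means activation of 40% to 60%, or above that upper limit; inactive means activation under 40%.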 This is one part of the list.
# Biological target: Probable G-protein coupled receptor 32 (Homo sapiens) (UniProt O75388)
# UniProt O75388, sequence (O75388 whole entry, looked up): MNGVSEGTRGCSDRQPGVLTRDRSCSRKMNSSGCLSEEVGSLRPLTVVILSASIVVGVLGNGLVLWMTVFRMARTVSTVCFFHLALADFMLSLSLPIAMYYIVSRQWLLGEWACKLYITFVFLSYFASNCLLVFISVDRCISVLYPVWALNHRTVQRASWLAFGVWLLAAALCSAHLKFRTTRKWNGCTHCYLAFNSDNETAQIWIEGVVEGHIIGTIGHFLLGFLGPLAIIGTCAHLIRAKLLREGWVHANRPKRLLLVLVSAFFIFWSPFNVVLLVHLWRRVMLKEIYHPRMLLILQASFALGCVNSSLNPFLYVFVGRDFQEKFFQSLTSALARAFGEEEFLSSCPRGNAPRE
# Assay: qHTS for Agonists of Human Resolvin D1 Receptor DRV1
# Settings: CHO-K1 GPR32 beta-arrestin PathHunter luminescence, 90 min; at 76.9 µM; active compounds read high; zero percent set by DMSO-only wells
# How it was run: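 Using DMSO wells as EC0, agonist-induced signal was taken as chemiluminescence from beta-Gal reconstituted upon beta-arrestin recruitment to GPR32 in CHO-K1 cells after 90 min compound treatment.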
row,SMILES,activation
1,COc1ccc(OC)c(S(=O)(=O)NCC(c2cccs2)S(=O)(=O)c2ccc(F)cc2)c1 (stereo unspecified),inactive: -4.08%
2,COc1cccc(N2CCN(C(=O)CN3CCSc4ccccc43)CC2)c1,inactive: 43.8%
3,COc1ccccc1CNc1ncnc2c1cnn2-c1ccc(C)cc1,inactive: 30%
4,Cc1ccc(-n2nc(C)c3c(C)cc(=O)n(CC(=O)Nc4cccc(C)c4C)c32)cc1,inactive: -3.66%
5,O=C(Nc1cc2c(cc1C(=O)c1ccccc1Br)OCCO2)c1cccc(Cl)c1,inactive: 29.6%
6,O=C(c1cc2c(=O)oc3ccccc3c2s1)N1CCN(c2ccccc2)CC1,inactive: 4.57%
7,COc1ccc2c(c1)c1c(c(=O)n(-c3cccc(C)c3)c(=O)n1Cc1cccc(Cl)c1)n2C,inactive: -5.18%
8,Cc1ccc(-c2noc(-c3nnn(-c4cccc(C(F)(F)F)c4)c3N)n2)cc1,inactive: 1.87%
9,COc1ccc(-c2nn(-c3ccccc3)cc2C2NC(=O)NC(C)=C2C(=O)OC(C)C)cc1OC (stereo unspecified),inactive: -19.3%
10,O=S(=O)(c1ccc2nc(N3CCN(c4ccccc4F)CC3)ccc2c1)N1CCCCC1,inactive: -19.4%
11,CC[C@@H]1Cc2cc(O)ccc2C2=C1c1ccc(O)cc1C[C@H]2CC,inactive: -11.7%
12,COc1ccc(N2C(=O)CSC23C(=O)N(Cc2cccc(F)c2)c2ccccc23)cc1Cl (stereo unspecified),inactive: 11.5%
13,Cc1nc(-n2nc(C)c(CCC(C)C)c2C)sc1C(=O)Nc1ccc(Cl)cc1,inactive: 3.81%
14,O=C(Cn1ncc2c3ccccc3n(Cc3ccc(F)cc3)c2c1=O)NCc1ccccn1,inactive: -0.389%
15,Cc1cc(-c2ccc(C)c(S(=O)(=O)NCC3CCN(Cc4ccccc4F)CC3)c2)on1,inactive: -35.6%
16,O=C(NCc1ccccc1)C(=O)Nc1c2c(nn1-c1ccccc1)CSC2,inactive: -20.7%
17,Cc1ccc(C(c2c(O)cc(C)n(Cc3ccco3)c2=O)N2CCC(C)CC2)cc1 (stereo unspecified),inactive: -9.43%
18,COc1ccc(OC)c(CNCc2c(C(=O)O)n(Cc3cccc(F)c3)c3cc(OC)ccc23)c1,inactive: 4.52%
19,Cc1cc(C)cc(NC(=O)C2CC(=O)N(c3ccccc3)C2)c1 (stereo unspecified),active: 118%

row,SMILES,activation
1,Cc1ccccc1CCNC(=O)c1ccc2c(c1)nc1n2CCCCC1,inactive: -4.42%
2,COc1ccc2cc3[n+](cc2c1OC)CCc1cc2c(cc1-3)OCO2,inactive: 34.4%
3,Cc1cccc(-c2nc(CN3CCCC(C(=O)NCCc4ccc(Cl)cc4)C3)c(C)o2)c1 (stereo unspecified),inactive: 49.3%
4,Cc1ccc(-c2nc3ccccc3o2)cc1NC(=O)Cc1ccc(Cl)cc1,inactive: 9.54%
5,O=C(CCn1c(=O)c2sccc2n(Cc2ccc(F)cc2Cl)c1=O)NCc1ccc2c(c1)OCO2,inactive: -17%
6,O=C(Nc1sc2c(c1C(=O)NCC1CCCO1)CCCC2)c1cc(=O)c2ccccc2o1 (stereo unspecified),inactive: -4.16%
7,CCOC(=O)c1cccc(NC(=O)c2cnc3sc(N4CCOCC4)nn3c2=O)c1,inactive: 12.6%
8,Cc1ccc(-c2cc(C(=O)Oc3ccc(C#N)cc3)no2)cc1C,inactive: 9.71%
9,COC(=O)c1ccccc1NC(=O)CSc1nc(C)c(Cl)c(C)c1C#N,inactive: -9.72%
10,Cc1ccc2c(c1)c1c(c(=O)n(Cc3ccccc3)c(=O)n1CC(=O)Nc1ccccc1F)n2C,inactive: -0.861%
11,CCCCCCCCCCOCC(O)CN (stereo unspecified),inactive: -28.9%
12,COc1ccc(S(=O)(=O)NCc2nc3nc(C)cc(C)n3n2)cc1OC,inactive: 0.226%
13,CCc1nn(CC(=O)Nc2ccc(NC(C)=O)cc2)c(=O)c2cc3sccc3n12,inactive: -1.73%
14,COc1ccc(CNC(=O)CSc2c3c(nc4ccc(Cl)cc24)CCCC3)cc1,inactive: -15.7%
15,O=C(Cn1cnc2onc(-c3ccc(Cl)cc3)c2c1=O)Nc1ccc(F)cc1,inactive: -10.4%
16,CCOc1ccc(NC(=O)N2CCN3CCCCC3C2)cc1 (stereo unspecified),inactive: -14.4%
17,CCOC(=O)c1ccc(N2C(=O)c3n[nH]c(-c4ccco4)c3C2c2cccc(O)c2)cc1 (stereo unspecified),inactive: 38.2%
18,Cc1ccc(S(=O)(=O)N(CCc2ccccc2)CC(=O)Nc2ccc(Br)cc2)cc1,inactive: 0.0174%
19,CN(C)CCN(Cc1ccsc1)c1ccccn1,inactive: 12.6%

row,SMILES,activation
1,COCCNC(=O)CN1C(=O)c2cccnc2Oc2ccc(Cl)cc21,inactive: -1.36%
2,CCc1cccc(CC)c1NC(=O)CCS(=O)(=O)c1ccc2c(c1)CCN2C(C)=O,inactive: -4.31%
3,Cc1cccc(NC(=O)c2oc3ccccc3c2NC(=O)Cc2coc3ccc(C(C)C)cc23)c1,inactive: -1.23%
4,O=[N+]([O-])c1cc(-c2nc(-c3ccccc3)no2)ccc1N1CCOCC1,inactive: 16.9%
5,COc1ccc(-c2nc(CCNC(=O)c3ccc(Br)o3)cs2)cc1,inactive: 6.04%
6,CCOc1ccccc1NC(=O)C1=C(C)Nc2ncnn2C1c1ccc(C)o1 (stereo unspecified),inactive: 5.43%
7,CCc1ccccc1NC(=O)Cn1c(SCc2ccc(F)cc2)nc2ccncc21,inactive: -3.24%
8,COc1ccc(-c2nc(CNS(=O)(=O)c3cccc(F)c3)cs2)cc1,inactive: -22.8%
9,O=C(CCCn1c(=O)c2cccn2c2ccccc21)NCc1ccccc1Br,inactive: -23.7%
10,CC1CCN(C(=O)C2COc3ccccc3C2)CC1 (stereo unspecified),inactive: -21%
11,Cc1ccc(Nc2sc(C(=O)c3ccccc3)c(N)c2C(N)=O)cc1,inactive: -18.5%
12,Cc1ccc(NC(=O)c2ccc(=O)n(Cc3ccccc3C)c2)c(C)c1,inactive: 22.4%
13,CCOC(=O)c1c(S(=O)(=O)N2CCCC(C(=O)NCc3ccccc3OC)C2)c(C)n(C)c1C (stereo unspecified),inactive: -6.97%
14,CCc1nc(SC)ncc1C(=O)N1CCN(c2cc(C)ccc2C)CC1,inactive: 17.5%
15,Cc1ccc(CN2CCCn3nc(C(=O)NCCc4cccc(C)c4)cc3C2=O)cc1,inactive: 5.38%
16,NC(=O)C1CCN(S(=O)(=O)c2ccc(N3CCCCS3(=O)=O)cc2)CC1,inactive: -11%
17,[Li+],inactive: 5.53%
18,CCc1ccccc1NC(=O)CSc1nc2c(oc3ccccc32)c(=O)n1C,inactive: 16.7%
